Test results published in PubChem BioAssay AID1347120 (National Center for Advancing Translational Sciences (NCATS), 2019).
Screen size: about 390,000 compounds; about 930 (0.24%) were called active. This list was built around the results that the source calls inconclusive (neither active nor inactive); the mix of calls is not that of the screen. Calls follow the shape of the dose curve; as a rule, active = well fitted activation curve with a large enough effect; inconclusive = small, poorly fitted or top-dose-only effect; inactive = no such curve, though single readings can be large or run the other way. Potencies of inconclusive entries are doubtful fits and often do not repeat.
Potency is read from the fitted curve at half-maximal effect; tags tell the direction and shape of the fitted curve.

Test: qHTS for Suppressors of FUS Proteinopathy: Primary screen using FUS-linked yeast assay; also: nearly all actives have a fitted effect of over 55% in size;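 as to growth rescue (activation): plate controls were DMSO vehicle for no effect and reference control for full effect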
Conditions: S. cerevisiae FUS-expressing, OD600, 24 h; Potency: growth rescue; growth rescue (activation): at 76.6 µM (top of the series)
In short: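 Restored growth of FUS-toxic S. cerevisiae, read as 600 nm absorbance after 24 h at 30C in galactose medium (starting OD 0.005). Controls CP55940 and DMSO.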
In the case of `COC(=O)c1c(-c2ccc(OC)cc2)sc2ccc(OC)cc12`, the “growth rescue (activation)” value is reported as inactive: 17.3%. In the case of `COC(=O)Oc1ccc(/C=N/NC(=O)CN(c2ccccc2Cl)S(C)(=O)=O)cc1OC`, the Potency is reported as inconclusive: 50.1 µM [activator, single point]. In the case of `CN(Cc1ccc2ccccc2c1)C(=O)c1ccc(C(F)(F)F)cc1`, the Potency is reported as inconclusive: 35.5 µM [activator, single point]. For `COc1cccc(-n2c(=O)c3c(C)c(C)sc3n(Cc3ccccc3C#N)c2=O)c1`, the “growth rescue (activation)” value was inactive: -13.2%. With `O=C(CSc1nnc(-c2ccccc2)n1-c1ccc(Cl)cc1)Nc1ccccc1-c1ccccc1` the Potency was active: 8.91 µM. In the case of `COC(=O)C1CCN(C(=O)COC(=O)c2ccc(OC)c(S(=O)(=O)N3CCCc4ccccc43)c2)CC1`, the Potency is reported as inconclusive: 35.5 µM [activator, single point]. For `COc1ccc(OC)c(Nc2ncnc3sccc23)c1`, the “growth rescue (activation)” value was inactive: -0.155%. In the case of `COc1ccc(/C=C/C(=O)Nc2ccc(-n3nncc3-c3ccccc3)cc2)cc1OC`, the Potency is reported as inconclusive: 50.1 µM [activator, single point]. For `Cc1ccc(S(=O)(=O)Nc2cc(=O)[nH]c(SCc3ccccc3Cl)n2)cc1`, the Potency was inconclusive: 35.5 µM [activator, partial curve, poor fit]. In the case of `CSc1ccccc1NC(=O)Nc1ccc(Cl)cc1`, the growth rescue (activation) is reported as inconclusive: 16.2% [activator]. For `CCCCN(CC)CCNC(=O)CCn1cnc2onc(-c3ccc(F)cc3)c2c1=O`, the “growth rescue (activation)” value was inactive: 3.82%. With `Cc1ccc(C=Nc2ccccc2C(N)=O)o1` the “growth rescue (activation)” value was inactive: 17.3%. For `CC(=O)c1ccc(NC(=O)CC2S/C(=N/N=C3CCCCCC3)NC2=O)cc1` (stereo unspecified), the Potency was inconclusive: 31.6 µM [activator, partial curve, poor fit]. For `CC1CN(S(=O)(=O)c2ccc(C(=O)Nc3nnc(-c4ccc5c(c4)CCCC5)o3)cc2)CC(C)O1` (stereo unspecified), the “growth rescue (activation)” value was inactive: -2.94%. With `CN1CCc2c(sc3c2c(=O)n(-c2cccc(Cl)c2)c2nncn32)C1` the Potency was inconclusive: 31.6 µM [activator, partial curve, poor fit]. For `CC(C)[C@H](NS(=O)(=O)c1ccccc1)C(=O)OCC(=O)NC(=O)NC1CCCCC1`, the Potency was inconclusive: 15.8 µM [activator, partial curve]. For `COc1ccc(Br)cc1CNC(=O)c1cnc2sc(N3CCCC3)nn2c1=O`, the “growth rescue (activation)” value was inactive: 6.74%. In the case of `COc1ccc(NC(=O)CN(C)C(=O)Cc2n[nH]c(=O)c3ccccc23)cc1`, the Potency is reported as inconclusive: 2.51 µM [activator, partial curve, poor fit]. In the case of `O=C(c1ccccc1)C(CCc1ccccn1)CCc1ccccn1`, the “growth rescue (activation)” value is reported as inactive: 16.9%. For `O=C(c1ccccc1)N1CCC(CC2CC(c3cccc(Br)c3)=NO2)(C(=O)NCC2CCCCC2)CC1` (stereo unspecified), the Potency was inconclusive: 25.1 µM [activator, partial curve]. With `CC(C)CNC(=O)NC(=O)COc1c(F)c(F)cc(F)c1F` the Potency was inconclusive: 8.91 µM [activator, partial curve, poor fit]. With `CCOC(=O)N1CCN(C(=O)C[C@@H]2C[C@@]3(C(=O)OCC)CCC=C3N(Cc3cccc4ccccc34)C2=O)CC1` the “growth rescue (activation)” value was inactive: 47.4%. In the case of `CCOC(=O)Oc1ccc2c(c1)C(C)=CC(C)(C)N2C(=O)OCC`, the “growth rescue (activation)” value is reported as inactive: 27.5%. For `CCc1cccc2c(-c3ccccc3)nc(SCC(=O)Nc3ccccc3OC)nc12`, the “growth rescue (activation)” value was inactive: -21.5%. For `CCOc1ccccc1C(=O)N(C)Cc1cc2cc(OC)ccc2[nH]c1=O`, the “growth rescue (activation)” value was inactive: -0.656%. In the case of `O=C(CCCN1C(=O)c2ccccc2C1=O)Nc1sc2c(c1C(=O)NCc1ccco1)CCC2`, the Potency is reported as inconclusive: 14.1 µM [activator, partial curve]. For `Cc1ccc(-n2ncc(C(=O)NCc3cccs3)c2C2CCN(C(=O)OC(C)(C)C)CC2)cc1`, the Potency was inconclusive: 22.4 µM [activator, partial curve]. In the case of `CC(CN1CCN(C)CC1)OC(=O)c1ccc(Cl)cc1Cl` (stereo unspecified), the growth rescue (activation) is reported as inconclusive: 73.8% [activator]. In the case of `COc1ccc(Cl)cc1NS(=O)(=O)c1c(C)[nH]c(C)c1C(=O)N1CCCCC1`, the Potency is reported as inconclusive: 22.4 µM [activator, partial curve]. With `NS(=O)(=O)c1ccc(N2N=C(c3ccccc3)CC2c2cccc(Cl)c2)cc1` (stereo unspecified) the Potency was inconclusive: 44.7 µM [activator, single point]. With `COC(=O)[C@@]12C[C@@H](CC(=O)NCC3CCCCC3)C(=O)N(Cc3ccccc3)C1=CCC(C)(C)C2` the Potency was inconclusive: 22.4 µM [activator, single point]. In the case of `CC(=O)N1c2ccccc2C(=O)OC1c1cccnc1` (stereo unspecified), the “growth rescue (activation)” value is reported as inactive: -10.4%. For `CC(=O)c1ccccc1OCCCN1CCCCC1`, the Potency was inconclusive: 11.2 µM [activator, single point]. For `COc1ccc(C#Cc2cccc(-c3nc(C(=O)NCCCN4CCOCC4)cc4c3[C@H](CCO)N(S(=O)C(C)(C)C)C4)c2)cc1OC` (stereo partly specified), the Potency was inconclusive: 5.62 µM [activator, full curve]. In the case of `Cc1ccc(S(=O)(=O)N2CCN(C(=O)c3cc(S(=O)(=O)N4CCOCC4)ccc3Cl)CC2)c(C)c1`, the Potency is reported as inconclusive: 28.2 µM [activator, single point]. With `COc1cc(/C=N/NC(=O)/C(=C\c2ccc3c(c2)OCO3)NC(=O)c2ccccc2)ccc1O` the Potency was inconclusive: 20 µM [activator, partial curve]. With `COc1ccc2c(c1)OC[C@H]1[C@H]2N2C(=O)c3cc(Br)ccc3NC(=O)[C@@]2(C)[C@H]1c1ccccc1` the Potency was inconclusive: 12.6 µM [activator, partial curve]. With `O=C(Nc1ccc(Cl)cc1)C1Cc2c(-c3cccc(F)c3)ccnc2O1` (stereo unspecified) the Potency was inconclusive: 31.6 µM [activator, single point]. With `CCOC(=O)CN1C=C(c2ccc3ccccc3n2)C(C[N+](=O)[O-])c2ccccc21` (stereo unspecified) the Potency was inconclusive: 14.1 µM [activator, partial curve]. For `Cc1cccc(NC(=O)c2cc(N3CCOCC3)nc3ccccc23)c1`, the Potency was inconclusive: 31.6 µM [activator, single point]. For `O=C(C1CCCN(Cc2ccccc2)C1)N1CCCCC1` (stereo unspecified), the “growth rescue (activation)” value was inactive: -18.8%. In the case of `COC(=O)c1c(NC(=O)CCCOc2ccc(C(C)(C)C)cc2)sc2c1C(C(=O)OC)CC2` (stereo unspecified), the “growth rescue (activation)” value is reported as inactive: 33%. In the case of `CCOC(=O)C1CCN(C(=O)c2ccc(OCC(=O)Nc3cccc(C(F)(F)F)c3)c(OC)c2)CC1`, the Potency is reported as inconclusive: 28.2 µM [activator, single point]. For `Cc1ccc(OCC(=O)NNC(=O)Cc2ccc(S(=O)(=O)N3CCOCC3)s2)cc1`, the Potency was inconclusive: 28.2 µM [activator, partial curve, poor fit]. In the case of `COc1cccc(C(=O)NCCc2csc(-c3ccc(Cl)cc3)n2)c1`, the “growth rescue (activation)” value is reported as inactive: 42.7%. For `COc1cccc(CN(C)CC(=O)NNC(=O)c2ccc(Cl)cc2)c1`, the Potency was inconclusive: 3.98 µM [activator, partial curve, poor fit]. With `CC(C)c1nnc(NC(=O)CCC(=O)N2CCN(c3ccccn3)CC2)s1` the “growth rescue (activation)” value was inactive: 16.8%. For `COc1ccc(OC)c(NC(=O)c2c(N3CCCC3=O)c3cc(OC)ccc3n2C)c1`, the “growth rescue (activation)” value was inactive: 11.5%. With `Cc1sc2nc(C(C)C)nc(SCC(=O)N3CCN(C(=O)c4ccco4)CC3)c2c1C` the Potency was inconclusive: 20 µM [activator, partial curve, poor fit]. With `O=C(c1cc(-c2ccccc2)on1)N1CCC(Oc2cccnc2)CC1` the “growth rescue (activation)” value was inactive: 2%. For `Cc1ccc(Nc2nnc(SCC(O)=C(C#N)c3nc4ccccc4[nH]3)s2)c(C)c1`, the Potency was inconclusive: 39.8 µM [activator, single point]. In the case of `Cc1ccccc1-n1nc(CO)c(C(=O)NCc2cccnc2)n1`, the “growth rescue (activation)” value is reported as inactive: 5.64%. In the case of `COCCNC(=O)Nc1cc(C(=O)NCc2ccc(C(C)C)cc2)ccc1N1CCCC1`, the Potency is reported as inconclusive: 35.5 µM [activator, partial curve, poor fit]. For `Cc1nn(-c2ccccc2)c(OC(=O)c2cccs2)c1S(=O)(=O)c1ccc([N+](=O)[O-])cc1`, the Potency was active: 39.8 µM. For `COc1ccc(-c2cc(C)no2)cc1S(=O)(=O)Nc1c(C)cc(C)cc1C`, the Potency was inconclusive: 28.2 µM [activator, single point]. For `COc1cc(OC)cc(C(=O)NCCCN2CCN(CCCNC(=O)c3cc(OC)cc(OC)c3)CC2)c1`, the Potency was inconclusive: 35.5 µM [activator, partial curve, poor fit]. With `COc1ccc(C(=O)NCCn2cc(SCC(=O)Nc3ccc(C)cc3)c3ccccc32)cc1` the Potency was inconclusive: 35.5 µM [activator, single point]. In the case of `CCn1cc(C(=O)OCC(=O)OC2CC(C)CCC2C(C)C)c(=O)c2ccc(C)nc21` (stereo unspecified), the Potency is reported as inconclusive: 50.1 µM [activator, single point]. With `Cc1cccc(-c2nc3c4ccccc4nc(N4CCN(c5ccccc5F)CC4)n3n2)c1` the “growth rescue (activation)” value was inactive: 10.4%. For `Cn1c(=O)c2c(nc(Br)n2CC(=O)C23CC4CC(CC(C4)C2)C3)n(C)c1=O`, the growth rescue (activation) was inconclusive: 70.1% [activator]. In the case of `CCOC(=O)[C@]12CCCC=C1N(Cc1ccc(OC)cc1)C(=O)[C@@H]2CC(=O)NCCCCc1ccccc1`, the Potency is reported as inconclusive: 8.91 µM [activator, full curve, poor fit]. For `CC(C)c1ccc(CC(=O)N2CCC2(C)C(=O)NCc2cccc3ccccc23)cc1` (stereo unspecified), the Potency was inconclusive: 31.6 µM [activator, single point]. In the case of `CCc1nc(Nc2ccccc2)c2nnn(Cc3ccccc3)c2n1`, the Potency is reported as inconclusive: 28.2 µM [activator, single point]. For `Cc1ccc(N(CC(=O)N2CCN(c3ccc(Cl)cc3)CC2)S(=O)(=O)c2c(C)nn(C)c2C)cc1`, the “growth rescue (activation)” value was inactive: 19.5%. For `CCC(Sc1nc2ncccc2[nH]1)C(=O)Nc1cccc(OC)c1` (stereo unspecified), the “growth rescue (activation)” value was inactive: -2.32%. In the case of `CCC1CCCCN1CCCNC(=O)c1[nH]c2ccccc2c1Sc1ccc(Cl)cc1` (stereo unspecified), the Potency is reported as inconclusive: 44.7 µM [activator, partial curve, poor fit].
